Results published in the supplement of paper PMC3334620.
Whole data set: some 33,000 sequences, median “E-score (-0.5 to 0.5)” near -0.032, cut for the highest 2% near 0.36. The list shows a part of the results.

Molecular target: T1, Sko1 (UniProt Q02100)
T1 sequence: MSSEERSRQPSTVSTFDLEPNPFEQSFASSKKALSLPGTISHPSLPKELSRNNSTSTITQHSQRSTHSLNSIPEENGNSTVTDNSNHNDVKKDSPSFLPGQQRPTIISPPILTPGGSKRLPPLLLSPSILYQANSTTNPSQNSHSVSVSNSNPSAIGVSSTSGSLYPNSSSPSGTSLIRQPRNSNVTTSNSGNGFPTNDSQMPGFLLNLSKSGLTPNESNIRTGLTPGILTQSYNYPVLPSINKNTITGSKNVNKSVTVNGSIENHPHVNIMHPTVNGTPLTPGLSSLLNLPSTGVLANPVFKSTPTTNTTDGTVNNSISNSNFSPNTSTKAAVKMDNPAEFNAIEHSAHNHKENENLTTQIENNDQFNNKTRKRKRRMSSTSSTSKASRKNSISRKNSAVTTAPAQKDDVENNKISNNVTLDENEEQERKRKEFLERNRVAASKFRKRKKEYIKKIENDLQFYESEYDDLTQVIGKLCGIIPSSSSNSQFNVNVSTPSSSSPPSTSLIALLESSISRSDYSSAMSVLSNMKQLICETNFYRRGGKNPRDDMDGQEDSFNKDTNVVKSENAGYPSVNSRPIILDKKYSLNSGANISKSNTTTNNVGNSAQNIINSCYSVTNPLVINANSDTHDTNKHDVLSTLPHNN
Assay: PBM E-score (8-mer binding enrichment) (E-score (-0.5 to 0.5)); higher = stronger / more preferred TF binding; most listed sequences are background and not binding sites
Conditions: protein concentration: 200 nM; construct: GST-full length
Method in brief: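 E-scores (a modified Wilcoxon-Mann-Whitney statistic) were assigned by the Universal PBM Analysis Suite to every ungapped eight-base word pooled with its reverse complement. The input came from universal all-10-mer Agilent arrays made double-stranded by primer extension and probed with GST-tagged yeast transcription factors at about 100-200 nM. Fluorescent anti-GST detected bound protein, and masliner normalised the scans.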

Sequence	PBM E-score
GAGCTGCA	-0.203
AAGTTCGT	0.0356
ATGATTCA	0.0896
CCGTCATC	0.36
ATGACCTA	0.335
CGCGCCCC	-0.187
ACTAATCT	-0.0324
ACACGATC	-0.0431
AGGCTGGA	-0.281
CATCCGCC	-0.221
CTTTATAC	0.0517
CAGACTCC	-0.239
ACAAGTAA	0.108
CGCCAGAC	-0.194
GAATACCC	-0.232
CTGCGCTA	-0.259
GCCGGAGA	0.0304
CCATGACG	0.475
AGACGAGC	-0.127
GCCTCCAA	-0.179
TGAAATAA	0.195
CTAAAATC	0.0417
GCTTTTAA	-0.0723
CCGCATCG	-0.293
TACGAGAA	0.171

Sequence	PBM E-score
TCGCGAAA	0.084
GTGGTACA	0.11
AACAGGAG	-0.0497
CGCGTGAC	0.267
CGACATCC	0.0204
AAGGCAAA	0.0497
ACGTTCTA	0.225
AGATTTCC	-0.0309
ACCGCTTG	-0.198
CAACGGGA	-0.0517
AGTAGAAT	0.173
CTGGTCTA	-0.127
GCCGACTA	0.0199
CACTGGCC	-0.164
CTCCGCAA	-0.139
CGTTTATA	0.278
AGAAGATA	0.122
CCATTAAA	-0.0804
CTTCCGGC	-0.259
CCTCGAGG	-0.0522
CGATACTA	0.103
CACTATCG	-0.0728
TGATGGCA	0.0236
AGCTTCGG	-0.239
ATGATTGC	0.145

Sequence	PBM E-score
AGGGGTGC	-0.241
CATCTGAG	-0.0554
GATAAGCA	0.149
ACGCAGCA	0.121
AGGCACAC	-0.19
ACGTGACC	0.292
GTGAGAGA	-0.0725
CAAAGACC	-0.0267
CACCCATA	-0.171
GATGGACA	-0.09
GAATCGGC	0.0193
CCAGGTTA	-0.197
GTTCAAAA	0.0536
ACACCTCA	-0.0252
ACCGGCTC	-0.231
ACCCTGAG	-0.0899
GACGCACA	0.36
ATAACTAG	0.124
CTATGATC	0.158
TCCGAAAA	3e-05
ACTCTCGG	-0.142
GGATATGA	0.077
CGGAAGAG	-0.168
ACCTACGG	-0.217
ACAAACTC	0.0691

Sequence	PBM E-score
AAAAATAC	0.22
CTCTCGAA	0.0273
GTGAACTA	0.236
TGCCGCCA	-0.23
GAAGGAAC	-0.138
AAGTCGGA	-0.0973
AATCAGAT	0.107
CGTATACG	0.393
AACTAGAC	0.163
AGCTCGAG	-0.117
GAGCGCAC	-0.0673
GTCATATA	0.373
GAATTTCC	-0.108
ATCAGGCC	-0.0403
CAGAGGCG	-0.281
TAGTTACA	0.0798
AAGTGAAT	0.167
CAGTCTTC	-0.187
CACCCGGC	-0.357
GTCCGGAC	-0.095
CTCGCCAG	-0.333
AGAATGAC	0.377
ACTCGCTG	-0.262
GTTCCAAC	0.0963
ACCTCAGG	-0.325

Sequence	PBM E-score
ACCAATCG	-0.0521
CACTCGAA	-0.00414
AGGGAGGG	-0.341
GGCTATCA	-0.0692
CTCTACCA	-0.215
AGAGGGAT	-0.301
AGTAGTGA	0.144
GCGGACAA	-0.0673
AAGAGTTG	0.12
AGTATGCA	-0.0795
CCAATAAA	0.0939
GACCTGTA	-0.134
AGTCCGGA	-0.134
AGTAGCGA	0.107
GGAAGCTA	-0.135
CTGGTTGA	-0.29
ACGGCATG	-0.0834
AGACACAG	-0.099
CACCACGA	0.204
CAGTATGA	0.129
CGGTATGC	-0.097
AAAATAAT	0.235
CTCGATAA	-0.114
AAAAGAAC	0.0862
AGACACAT	0.0361

Sequence	PBM E-score
CCCCGTCG	-0.245
ACATTTGG	-0.117
GTAGCTGA	0.03
GCACAGAC	-0.0296
CGAAGGTA	0.0326
ATAAAGGA	-0.211
ACGCAGAC	0.0967
ATGGGTGG	-0.0707
ACCGTTCA	-0.125
ATGTGACG	0.44
GTGCAAGA	0.0934
ATTATTCC	0.0482
ACTCACAT	0.0595
GCCCGCCC	-0.173
CACAGTAA	0.17
GTTAACCA	0.0228
GAAAGTGC	-0.11
GCTGAGCA	-0.135
CTTTAAGA	0.118
GAGCGACA	0.104
AGCTGTTG	-0.0671
TCGAGTAA	0.207
ATGAGAAG	0.0598
AGGCGCCT	-0.263
ACGCGAGC	0.185

Sequence	PBM E-score
GAGGTCCA	-0.189
CAAACTGG	-0.369
CACCCTCG	-0.155
AACGAATA	0.0548
GCAGTAGC	-0.269
ACGGGGAT	-0.26
CTTGGGTC	-0.348
TTGGAAAA	0.109
AGGCAATA	-0.0969
AAGTCTGA	-0.0839
CGAGGCCG	-0.332
CTAGGGAC	-0.221
GTGTCTCA	0.0768
CACAGAAC	-0.0732
CAGCCATA	-0.0756
AGTACGAC	0.157
AGGAGAAG	-0.214
AATAATAT	0.197
CTTGTCAA	0.0362
AGCCATTC	-0.0843
CCACATGG	-0.152
CACGTGTA	0.399
